Measured values taken from the antibiotic and cytotoxicity screens of Wong et al. (2023).
The list shows a part of the results.

system: S. aureus RN4220; assay: growth inhibition call (relative growth <= 0.2); settings: 50 µM

Growth inhibition call, inactive:
C[C@@H]1CCCCO[C@H](CN(C)C(=O)NC2CCCCC2)[C@@H](C)CN([C@H](C)CO)C(=O)c2cc(NS(=O)(=O)c3ccc(Cl)cc3)ccc2O1
O=C(NCc1ccccc1)C1=C[C@@H](c2ccc(Br)cc2)C[C@@H](OCc2ccc(CO)cc2)O1
C=CCOC(=O)[C@H]1[C@@H]2C(=O)O[C@@H](c3ccccc3)[C@@H](c3ccccc3)N2[C@@H](c2ccc(OCCOC(=O)[C@H]3C[C@H]4C(=O)N[C@@H](Cc5ccccc5)C(=O)N4[C@H]3c3cccc(OCCO)c3)cc2)[C@]12C(=O)Nc1ccccc12
C[C@@H]1CN([C@@H](C)CO)C(=O)Cc2cc(NS(=O)(=O)c3ccc(Cl)cc3)ccc2O[C@H]1CN(C)Cc1ccc(C(=O)Nc2ccccc2N)cc1
N[C@@H](CCO)c1cccc(Cl)c1
O=C(C[C@@H]1C[C@@H]2c3cc(NC(=O)Cc4ccncc4)ccc3O[C@@H]2[C@@H](CO)O1)NCCc1ccccc1
COc1ccc(NC(=O)Nc2cccc3c2O[C@H](CN(C)Cc2ccc(C(F)(F)F)cc2)[C@@H](C)CN([C@@H](C)CO)C3=O)cc1
C[C@H](CO)N1C[C@H](C)[C@H](CN(C)C(=O)Nc2ccc3c(c2)OCO3)OCCCC[C@H](C)Oc2ccc(NC(=O)Nc3ccccc3)cc2C1=O
CC(O)(CN)C1CC1 (stereo not given)
COc1ccc(CN(C)C[C@H]2OCCCC[C@@H](C)Oc3ccc(NC(=O)C4CCCCC4)cc3C(=O)N([C@@H](C)CO)C[C@@H]2C)cc1
C[C@@H]1CN([C@H](C)CO)C(=O)Cc2cc(NC(=O)Cn3cnnn3)ccc2O[C@@H]1CN(C)C(=O)Nc1ccccc1
C[C@H](CO)N1C[C@H](C)[C@H](CN(C)Cc2cccc(C(F)(F)F)c2)Oc2ncc(-c3cccc(F)c3)cc2C1=O
COc1ccc(cc1)S(=O)(=O)N1C[C@]2(C1)CN([C@H](CO)c1c2c2ccc(cc2n1C)OC)C(=O)c1cccnc1
C[C@@H]1CN([C@H](C)CO)C(=O)c2cc(C#CCN(C)C)cnc2O[C@H]1CN(C)C(=O)c1ccc2c(c1)OCO2
COc1ccc(S(=O)(=O)N(C)C[C@@H]2Oc3ccc(NC(=O)c4ccncc4)cc3C(=O)N([C@@H](C)CO)C[C@H]2C)cc1
COc1ccc(NC(=O)N(C)C[C@H]2Oc3ccc(NS(=O)(=O)c4c(C)noc4C)cc3CC(=O)N([C@@H](C)CO)C[C@@H]2C)cc1
N#Cc1cn(C2CCCCC2)c(=O)[nH]c1=O
Cc1ccc(S(=O)(=O)N(C)C[C@H]2Oc3ccc(NC(=O)NC(C)C)cc3CC(=O)N([C@@H](C)CO)C[C@@H]2C)cc1
C#Cc1ccc(C(=O)NO)cc1
C[C@@H]1CN([C@@H](C)CO)C(=O)c2cc(NC(=O)Cc3ccccc3)ccc2O[C@@H](C)CCCCO[C@@H]1CN(C)C(=O)CCC(F)(F)F
C/C=C/c1ccc2c(c1)O[C@@H](CN(C)Cc1ccc(C(=O)O)cc1)[C@H](C)CN([C@@H](C)CO)S2(=O)=O
C[C@@H](CN1CCCCC1)C(=O)NN
C[C@@H]1CN([C@@H](C)CO)C(=O)c2cc(NC(=O)NC3CCCCC3)ccc2O[C@@H]1CN(C)Cc1ccc(Cl)c(Cl)c1
C[C@H](CO)N1C[C@H](C)[C@@H](CN(C)C(=O)Nc2cccc3ccccc23)Oc2ccc(NC(=O)Cc3cn(C)c4ccccc34)cc2C1=O
COc1cccc(NC(=O)N(C)C[C@@H]2Oc3ncc(C#Cc4cccnc4)cc3C(=O)N([C@H](C)CO)C[C@@H]2C)c1
Cc1noc(C)c1S(=O)(=O)Nc1ccc2c(c1)CC(=O)N([C@H](C)CO)C[C@H](C)[C@H](CN(C)S(=O)(=O)c1ccc(F)cc1)O2
C[C@H]1CN([C@@H](C)CO)S(=O)(=O)c2ccc(-c3cncnc3)cc2O[C@@H]1CN(C)C(=O)c1cccc(F)c1
COc1ccc(CN(C)C[C@H]2Oc3ccc(NC(=O)C4CC4)cc3CC(=O)N([C@@H](C)CO)C[C@H]2C)cc1
Cc1ccc(S(=O)(=O)Nc2cccc3c2O[C@@H](CN(C)S(=O)(=O)c2cccs2)[C@@H](C)CN([C@@H](C)CO)C3=O)cc1
CC(C)NC(=O)Nc1ccc2c(c1)C(=O)N([C@@H](C)CO)C[C@@H](C)[C@@H](CN(C)S(=O)(=O)c1cccs1)O2
COc1ccc(S(=O)(=O)Nc2ccc3c(c2)OC[C@@H](C)N(C)C[C@@H](C)[C@H](OC)CN(C)C3=O)cc1
CC(C)NC(=O)N(C)C[C@@H]1Oc2ccc(NC(=O)Cc3ccccc3)cc2CC(=O)N([C@@H](C)CO)C[C@H]1C
C[C@H]1CN([C@@H](C)CO)C(=O)c2c(c3ccccc3n2C)-c2ccccc2CO[C@H]1CN(C)S(C)(=O)=O
C[C@H](CO)N1C[C@H](C)[C@@H](CN(C)S(=O)(=O)c2ccc(F)cc2)Oc2c(NC(=O)c3cnccn3)cccc2C1=O
C[C@@H]1CN([C@@H](C)CO)C(=O)Cc2cc(NC(=O)Cc3cn(C)c4ccccc34)ccc2O[C@H]1CN(C)S(C)(=O)=O
C[C@@H]1CCCCO[C@H](CN(C)S(=O)(=O)c2ccc(Cl)cc2)[C@H](C)CN([C@H](C)CO)C(=O)c2cc(NC(=O)c3ccncc3)ccc2O1
C[C@H]1CCN=C(N)S1
CC(=O)NCCCC[C@@H]1NC(=O)[C@@H]2C[C@H](C(=O)NCCCCCN)[C@H](c3ccc(O)cc3)N2C1=O
NCc1nncn1-c1ccc(F)cc1
CCCc1cc(C)[nH]c(=O)c1CNC(=O)c1cc(-c2ccc(N3CCN(C(C)C)CC3)nc2)cc2c1cnn2C(C)C
